Measurements as given in article PMC4336329 (PLoS ONE, 2015).
About 2,200 (0.71%) of roughly 310,000 compounds showed an effect of 50% or more. Effects have a minus sign here. The list shows a part of the results.

Biological target: human ether-à-go-go-related gene (hERG) potassium channel (human, UniProt Q12809)
Test: primary screen, population patch clamp on CHO cells stably expressing hERG

human ether-à-go-go-related gene (hERG) potassium channel, sequence (Q12809 whole entry, looked up): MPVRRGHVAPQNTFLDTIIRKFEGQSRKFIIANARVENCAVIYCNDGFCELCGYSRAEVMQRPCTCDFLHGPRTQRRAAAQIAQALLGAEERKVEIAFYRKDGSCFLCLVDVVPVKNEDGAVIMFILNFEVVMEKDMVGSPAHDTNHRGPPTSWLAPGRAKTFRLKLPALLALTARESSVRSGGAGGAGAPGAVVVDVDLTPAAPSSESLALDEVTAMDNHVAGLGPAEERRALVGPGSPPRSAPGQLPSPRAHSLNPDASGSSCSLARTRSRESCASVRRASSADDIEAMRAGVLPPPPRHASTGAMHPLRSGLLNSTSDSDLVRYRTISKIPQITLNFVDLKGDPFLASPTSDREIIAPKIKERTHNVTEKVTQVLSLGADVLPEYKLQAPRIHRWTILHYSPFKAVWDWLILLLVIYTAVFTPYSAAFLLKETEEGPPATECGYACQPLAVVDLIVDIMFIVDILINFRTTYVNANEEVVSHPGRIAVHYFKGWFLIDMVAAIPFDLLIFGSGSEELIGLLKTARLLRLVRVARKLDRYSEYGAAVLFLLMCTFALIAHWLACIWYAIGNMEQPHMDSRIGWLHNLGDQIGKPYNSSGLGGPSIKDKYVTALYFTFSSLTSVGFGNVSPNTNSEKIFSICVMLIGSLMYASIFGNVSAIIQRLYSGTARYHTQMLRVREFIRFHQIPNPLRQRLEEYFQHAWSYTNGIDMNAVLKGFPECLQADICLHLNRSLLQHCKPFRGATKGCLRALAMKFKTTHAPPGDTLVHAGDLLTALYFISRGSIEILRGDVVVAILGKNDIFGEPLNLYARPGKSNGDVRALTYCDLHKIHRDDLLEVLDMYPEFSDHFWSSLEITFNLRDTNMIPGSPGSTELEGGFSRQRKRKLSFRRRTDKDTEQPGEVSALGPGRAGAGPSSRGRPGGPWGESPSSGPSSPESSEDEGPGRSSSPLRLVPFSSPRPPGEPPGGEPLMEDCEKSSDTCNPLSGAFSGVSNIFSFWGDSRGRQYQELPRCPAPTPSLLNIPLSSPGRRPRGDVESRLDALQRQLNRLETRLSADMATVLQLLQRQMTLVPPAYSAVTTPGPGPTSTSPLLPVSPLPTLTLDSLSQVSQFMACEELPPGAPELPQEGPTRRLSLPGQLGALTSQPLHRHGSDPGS

| Structure (SMILES) | hERG current change (%, negative = inhibition) at 1uM [%] |
| --- | --- |
| Cc1cccc(OCC(=O)NCCNC(=O)c2ccncc2)c1 | 24.1 |
| CC(=O)Nc1ccc(S(=O)(=O)N2CCN(CCCOc3ccccc3Cl)CC2)cc1 | 1.67 |
| CCOC(=O)CSc1nc(C2CC2)cc(-c2ccc(Cl)cc2)c1C#N | -6.78 |
| O=C(CSc1nnc(CNC(=O)c2ccco2)o1)Nc1ccccc1 | 13.8 |
| COCC(=O)Nc1cc(OC)ccc1OC | 12.6 |
| O=C(OCc1nc2ccccc2s1)c1ccccc1O | 10.4 |
| CC(=O)c1c(C(C)=O)c(C)n(-c2cccc([N+](=O)[O-])c2)c1C | 6.15 |
| CSCCn1c(C(C)(C)C)cc(C(=O)O)c1C | 16.7 |
| CCn1c(SCC(=O)Nc2cccc(OC)c2)nc2ccccc2c1=O | -8.15 |
| O=C(O)CCC(=O)NNC(=O)c1cccc(Br)c1 | -1.11 |
| OCC(O)C1OC(Nc2ccc(Br)cc2)C(O)C1O (stereo not shown) | 12 |
| Cc1cc(C)n(CCC(=O)N/N=C/c2ccc(O)cc2O)n1 | 11.4 |
| Cc1cccc(NC(=O)c2cc3c(=O)n4ccccc4nc3n(CC(C)C)c2=N)c1 | -52.2 |
| COC(=O)C(C)NC(=S)N1CCN(c2c(F)cc3c(=O)c(C(=O)O)cn(C4CC4)c3c2OC)CC1C (stereo not shown) | 6.29 |
| Cc1ccc2c(c1)N(C(=O)CCC(=O)N1CCC(C(N)=O)CC1)CCO2 | -1.98 |
| CCC(C)NC(=O)c1ccc(NC(=O)CC2SC(N3CCCC3)=NC2=O)cc1 (stereo not shown) | 15.3 |
| Cc1ccc(-c2onc3ccc(C4OCCO4)cc23)cc1 | 10.2 |
| COCCCn1c(SCC(=O)N2CC(=O)Nc3ccccc32)nnc1-c1ccoc1C | 12.9 |
| O=C(Nc1ccc(Cl)cc1F)c1ccc(COc2c(F)c(F)c(F)c(F)c2F)o1 | 7.18 |
| C/C=C\C(=O)Nc1cccc(C2=NOC3(C2)C[C@@H](C(N)=O)N(C(=O)c2ccc(Cl)cc2)C3)c1 (stereo partly shown) | 6.99 |
| N#Cc1c(N)n(CCOC(=O)c2cccc([N+](=O)[O-])c2)c2nc3ccccc3nc12 | 13.1 |
| CC(OC(=O)c1oc2ccccc2c1COc1ccccc1)C(N)=O (stereo not shown) | 14.7 |
| CC(NC(=O)C1CCN(S(=O)(=O)c2ccc(Br)s2)CC1)c1ccccc1 (stereo not shown) | 3.34 |
| O=C(/C=C/c1ccc([N+](=O)[O-])cc1)c1cccs1 | 8.1 |
| Cc1c(C)n(Cc2ccccc2)c2ncnc(N)c12 | 8.97 |
| C=CCOc1ccc(C2C(C(=O)c3cccs3)=C(O)C(=O)N2c2nnc(C)s2)cc1 (stereo not shown) | 14 |
| CC(C)C(NC(=O)C12CC3CC(CC(C3)C1)C2)C(=O)NC1=NCCS1 (stereo not shown) | 3.24 |
| O=C(CSc1nnc(NC(=O)C2CC(=O)N(c3ccc(F)cc3)C2)s1)NC1CCCC1 (stereo not shown) | 6.91 |

| Structure (SMILES) | hERG current change (%, negative = inhibition) at 1uM [%] |
| --- | --- |
| COc1ccccc1N/N=C/c1ccc2c(c1)OCO2 | -3.44 |
| O=C(CN1C2CCC1CC(NC(=O)C1CC1)C2)NCc1ccccc1 (stereo not shown) | 11.4 |
| C[C@H](NC(=O)c1nc[nH]c1C(=O)N[C@@H](Cc1ccccc1)C(=O)OC(C)(C)C)C(=O)OCc1ccccc1 | 8.97 |
| CCC(CC)c1nnc(NC(=O)CN2C(=O)c3ccccc3C2=O)s1 | 6.24 |
| O=C(CCCOc1ccccc1)NC1CCCc2ccccc21 (stereo not shown) | -4.31 |
| CCN1CCN(c2oc(/C=C/c3ccccc3)nc2C#N)CC1 | -26.4 |
| Cc1ccc(-c2noc(Cn3cc(S(=O)(=O)N4CCCC4)ccc3=O)n2)cc1 | 3.51 |
| COC(=O)c1ccc(NC(=O)C2CC(=O)OC2c2ccccc2)cc1 (stereo not shown) | 17.5 |
| O=C(NCc1ccccc1)C1=C[C@@H](c2ccc(Br)cc2)C[C@@H](OCc2ccc(CO)cc2)O1 | -1.02 |
| O=C(C1CCC1)N1CCCc2cc(S(=O)(=O)N3CCN(c4ccccc4)CC3)ccc21 | 5.32 |
| CCCNC(=O)C1(CC2CC(c3ccccc3)=NO2)CCN(C(=O)C2CCCC2)CC1 (stereo not shown) | -12 |
| CC(C)Cc1nnc(NC(=O)Cc2ccc([N+](=O)[O-])cc2)s1 | 5.45 |
| Cc1ccccc1NC(=O)Cn1c(=O)n(C)c2ccccc21 | 1.73 |
| CN1CCCC(OC(=O)CCCCC(=O)OC2CCCN(C)C2)C1.Cl (stereo not shown) | 8.53 |
| O=C(Nc1ccc2c(c1)OCCO2)c1cccnc1Oc1ccc(Cl)cc1 | 8.93 |
| COc1ccc(-c2nc(CS(=O)CC(=O)NC3CCCCCC3)c(C)o2)cc1 (stereo not shown) | 7.4 |
| OCc1nc2ccccc2n1CC(O)COc1ccccc1 (stereo not shown) | 13.3 |
| Cc1ccc(NC(=O)NC2(C(=O)NCc3ccccc3)CCCCC2)cc1 | 0.273 |
| O=C1CCCN1CC(O)CS(=O)(=O)c1ccccc1 (stereo not shown) | 14.4 |
| O=[N+]([O-])c1ccc(N2CCN(c3ccc(F)cc3)CC2)nc1 | 0.701 |
| COc1ccc(CC2(CO)CCN(Cc3cnn(-c4ccc(F)cc4)c3)CC2)cc1 | -79.2 |
| Cc1ccc2c(c1)N(CC(=O)NCCCc1ccccc1)C(=O)c1cccnc1O2 | 0.147 |
| CCOC(=O)c1ccc(NC(=O)CN2CCN(c3ccccc3)CC2)cc1 | 14.9 |
| Cc1cc(C(F)(F)F)n2nc(-c3cnn(C)c3C(F)(F)F)c(Cl)c2n1 | 9.07 |
| CCC1(c2ccccc2)NC(=O)N(CC(=O)Nc2ccccc2C(=O)NC2CCCC2)C1=O (stereo not shown) | -4.23 |
| O=C1c2cccc3cccc(c23)C(=O)C1(O)O | 4.79 |
| C[C@@H](C(=O)NC1CCCC1)N1C(=O)N2CCc3c([nH]c4ccccc34)[C@@]2(C)C1=O | 2.37 |
